# Laboratory results published in publication PMC4336329 (PLoS ONE, 2015).
# About 2,200 (0.71%) of roughly 310,000 compounds showed an effect of 50% or more. Effects have a minus sign here. Some of the results follow.
# Biological target: human ether-à-go-go-related gene (hERG) potassium channel (human, UniProt Q12809)
# Test: primary screen, population patch clamp on CHO cells stably expressing hERG
# human ether-à-go-go-related gene (hERG) potassium channel, sequence (Q12809 whole entry, looked up): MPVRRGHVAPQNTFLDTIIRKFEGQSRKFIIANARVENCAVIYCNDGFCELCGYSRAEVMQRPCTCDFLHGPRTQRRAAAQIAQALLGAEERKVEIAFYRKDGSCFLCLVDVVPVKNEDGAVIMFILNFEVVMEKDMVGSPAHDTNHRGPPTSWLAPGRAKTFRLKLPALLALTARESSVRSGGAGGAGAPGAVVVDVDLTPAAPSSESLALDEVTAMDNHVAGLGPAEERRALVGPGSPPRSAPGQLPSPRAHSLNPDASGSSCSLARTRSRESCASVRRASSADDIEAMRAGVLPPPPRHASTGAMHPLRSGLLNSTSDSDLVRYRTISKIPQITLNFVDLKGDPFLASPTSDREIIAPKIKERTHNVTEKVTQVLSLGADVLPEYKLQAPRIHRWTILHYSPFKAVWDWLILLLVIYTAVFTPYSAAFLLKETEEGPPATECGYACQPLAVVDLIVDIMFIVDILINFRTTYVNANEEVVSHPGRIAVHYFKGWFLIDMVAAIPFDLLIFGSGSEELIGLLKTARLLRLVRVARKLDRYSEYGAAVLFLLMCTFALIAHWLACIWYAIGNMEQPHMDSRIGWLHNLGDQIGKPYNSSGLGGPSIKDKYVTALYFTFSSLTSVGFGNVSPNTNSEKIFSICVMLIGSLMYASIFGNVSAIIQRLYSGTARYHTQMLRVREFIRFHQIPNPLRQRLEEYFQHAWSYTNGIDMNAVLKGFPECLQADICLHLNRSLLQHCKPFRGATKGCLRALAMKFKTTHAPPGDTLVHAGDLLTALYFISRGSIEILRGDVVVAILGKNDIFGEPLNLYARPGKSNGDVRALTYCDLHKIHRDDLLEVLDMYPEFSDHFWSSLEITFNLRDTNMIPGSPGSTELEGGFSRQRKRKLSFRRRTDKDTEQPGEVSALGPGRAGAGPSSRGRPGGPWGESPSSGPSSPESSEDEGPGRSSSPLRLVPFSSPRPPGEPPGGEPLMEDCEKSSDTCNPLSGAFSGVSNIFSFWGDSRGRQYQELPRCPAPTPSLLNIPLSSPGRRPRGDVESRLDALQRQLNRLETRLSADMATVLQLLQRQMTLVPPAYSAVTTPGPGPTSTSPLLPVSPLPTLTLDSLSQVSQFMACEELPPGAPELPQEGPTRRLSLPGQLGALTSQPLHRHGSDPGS
row,SMILES,"hERG current change (%, negative = inhibition) at 1uM [%]"
1,CCn1ncc2c(OCc3ccc(C#N)cc3)cc(C)nc21,-1.55
2,O=C(Nc1nccs1)C1CC(=O)N(c2ccccc2)C1 (stereo not shown),15.7
3,CCC(C)[C@@H](N)C(=O)N/N=C/c1ccc2ncccc2c1.Cl (stereo partly shown),13.4
4,CN(C)C(C)(C)C#CCCCCC#CC(C)(C)N(C)C,19.6
5,Cc1ccc2c(Cl)cc(Cl)c(OCC(=O)O)c2n1,11.4
6,O=C(Nc1ccc(S(=O)(=O)N2CCOCC2)cc1)c1cccs1,11.5
7,CC(C)(C)NC(=O)C(=O)NNC(=O)c1ccc(C(C)(C)C)cc1,10.1
8,O=C(CN1C(=O)NC2(CCCCCCC2)C1=O)Nc1ccc(Cl)cc1,3.41
9,CCOc1ccc(C(=O)NC2CCN(C(=O)NCc3ccccc3)CC2)cc1,7.81
10,Cc1c(NC(=O)CSc2nc3ccc(Cl)cc3[nH]2)c(=O)n(-c2ccccc2)n1C,13.7
11,Cc1cc(C)c(C(=O)NCC(=O)c2ccccc2)c(C)c1,6.18
12,Cc1ccc(C)c(NC(=O)COC(=O)COc2cccc3c2OC(C)(C)C3)c1,15.5
13,COc1cccc(C2C(C(N)=O)=C(C)Nc3nc(CCCO)nn32)c1OC (stereo not shown),7.87
14,CCc1ccc(NC(=O)C(CC)Sc2nc3ccsc3c(=O)n2CCC(=O)O)cc1 (stereo not shown),17.3
15,COc1ccc(NC(=O)CSCC(=O)Nc2ccccc2N2CCCCC2)cc1,21.8
16,Cc1ccc(C(=O)CCC(=O)NCc2ccc(Cl)cc2)cc1,12.2
17,O=C(c1cn(CC2CCCCC2)nn1)N1CCN(c2ccc(F)cc2)CC1,6.61
18,COc1ccc2c(=O)c(-c3ccc4c(c3)OCO4)coc2c1,10.1
19,Cc1nc2sc(C(c3ccc(C(C)C)cc3)N3CCN(CCO)CC3)c(O)n2n1 (stereo not shown),14.1
20,CCOC(=O)CSc1nc2c(cnn2-c2ccc(Cl)cc2)c(=O)[nH]1,6.59
21,c1ccc(OCCSc2nnnn2C2CCCCC2)cc1,9.14
22,Fc1ccc(-c2[nH]ncc2CN2CCN(c3ccc(F)cc3)CC2)cc1,-0.0709

row,SMILES,"hERG current change (%, negative = inhibition) at 1uM [%]"
1,CC(C)n1c(/C=C/[C@@H](O)C[C@@H](O)CC(=O)[O-])c(-c2ccc(F)cc2)c2ccccc21.[Na+],20.4
2,CN(C)c1ccc(C(C(=O)NC(C)(C)C)N(C(=O)c2csnn2)C2CC2)cc1 (stereo not shown),8.36
3,Cc1cccc(NS(=O)(=O)c2cc3c4c(c2)CC(=O)N4CCC3)c1C,17.3
4,CC1=NN(/C(=N\c2nnc(C)s2)Nc2ccccc2)[C@H](c2cccc3ccccc23)S1,1.38
5,CCC(CC)N1CCN(C(=O)c2cc(OC)c(OC)c(OC)c2)CC1,13.7
6,CN(Cc1ccon1)C(=O)c1ccc2nc(Cc3cccc(Cl)c3)oc2c1,13.4
7,COc1ccc(C2c3ccc(O)cc3Oc3ncn(CCN4CCOCC4)c(=N)c32)cc1OC (stereo not shown),4.84
8,N/C(=N\O)c1ccc(Cl)cc1Cl,5.58
9,Cc1ccc(S(=O)(=O)/N=C(\CN2CCCCC2)N2CCOCC2)cc1,3.34
10,CCCCN(C(=O)c1ccc(S(=O)(=O)N2CCC(C)CC2)cc1)C1CCS(=O)(=O)C1 (stereo not shown),-6.52
11,Cc1ccc2c(c1)C1CN(C)CCC1N2C(=O)COc1ccc(N(C)C(=O)C(C)(C)C)cc1 (stereo not shown),10.5
12,COc1ccc(NC(=O)CSc2nnc(C(C)C)n2N)cc1,-7.02
13,Cc1ccc(-n2c3nc(=O)n(C)c(=O)c-3cc3ccccc32)cc1,18
14,C/C(=N\N1CCN(C)CC1)c1c(O)n(Cc2ccccc2)c(=O)[nH]c1=O,3.02
15,Cl.NC(N)=NCCCc1cn(CC(=O)N2CCNCC2)nn1,4.77
16,CCCS(=O)(=O)NCCc1cc2ccc(OC)cc2[nH]c1=O,10.9
17,CN(C)CCNC(=O)C12CC3(C)CC(C)(CC(C)(C3)C1)C2.Cl,9.83
18,Cc1nc([N+](=O)[O-])cn1CC(=O)NCCCO,8.4
19,CCC(C)OC(=O)C1=C(C)O[C@]23OC(N)=C(C#N)[C@]12C(=O)c1ccccc13 (stereo partly shown),1.76
20,Cl.O=C1CSC(c2ccccc2F)N1CCN1CCCCC1 (stereo not shown),1.03
21,COc1ccc(C(=O)N2N=C(c3ccc(NS(C)(=O)=O)cc3)CC2c2cccs2)cc1 (stereo not shown),6.53
22,CCOC(=O)N1CCN(C(=O)COc2ccc(Br)cc2)CC1,-22.7

row,SMILES,"hERG current change (%, negative = inhibition) at 1uM [%]"
1,NC(=O)N1CCc2ccccc21,5.88
2,COc1ccccc1N(CC(=O)NCCSCc1ccc(Cl)cc1)S(C)(=O)=O,-5.96
3,O=C(NCc1cccnc1)c1cccs1,6.35
4,CCOC(=O)N1CCC(N2CCCC(CO)(Cc3cccc(Cl)c3)C2)CC1 (stereo not shown),-9.2
5,S=C(NCCc1ccccc1)Nc1cccc2cnccc12,3.97
6,Cc1ccc(C(=O)N2CCN(C)CC2)cc1S(=O)(=O)N1CCOCC1,20
7,CCCN(CC(=O)Nc1ccccc1C)C(=O)c1ccc(N2CCOCC2)c([N+](=O)[O-])c1,-24.4
8,CCCCn1c(N)c(N(CC)C(=O)c2cc(OC)cc(OC)c2)c(=O)[nH]c1=O,1.56
9,Cn1c(=O)n(C)c2cc(S(=O)(=O)N3CCN(c4ccccc4)CC3)ccc21,-3.09
10,CCCCC1=NC2(CCCC2)C(=O)N1Cc1ccc(-c2ccccc2-c2nn[nH]n2)cc1,10.4
11,Cc1cccc(C(=O)Nc2ccccc2SCC2CSc3nc4ccccc4c(=O)n32)c1 (stereo not shown),-66.5
12,CC(=O)c1ccc(N2CCN(C(=O)c3ccco3)C(C)C2)c(F)c1 (stereo not shown),-11.2
13,COc1ccc(NC(=O)CSc2nc3c(c(=O)n2-c2ccc(F)cc2)SCC3)cc1,6.85
14,Cc1c(C(=O)NC(=S)Nc2ccc3c4c(cccc24)CC3)cccc1[N+](=O)[O-],9.1
15,Cc1ccc(OC(C)C(=O)N(C)Cc2ccccc2)c([N+](=O)[O-])n1 (stereo not shown),6.03
16,O=C1OCCC1Sc1nc2ccccc2c(=O)n1Cc1ccc(F)cc1 (stereo not shown),-37.5
17,Cl.N=c1ccn(Cc2cccc(Cl)c2)cc1,0.737
18,CCC(=O)Nc1cc2c(cc1C(=O)c1ccccc1)OCCO2,4.89
19,C#CCN(C)[C@H](C)Cc1ccccc1.Cl,10.3
20,CCOc1ccc(CCNC(=O)COC(=O)CNS(=O)(=O)c2ccc(NC(C)=O)cc2)cc1OCC,10.7
21,CSc1nncn1/N=C/c1cc(Cl)ccc1F,-0.963
22,COc1cccc(C2=CC(c3ccc(N(C)C)cc3)n3ncnc3N2)c1 (stereo not shown),8.3

row,SMILES,"hERG current change (%, negative = inhibition) at 1uM [%]"
1,O=C(COC(=O)c1ccc(OC(F)F)cc1)NCCC1=CCCCC1,0.371
2,O=C(CCn1[nH]c(=O)c2ccccc2c1=O)N1CCOCC1,23.2
3,O=C(COC(=O)c1c2c(nc3ccccc13)CCCC2)c1ccc(Br)s1,1.13
4,CN(C)c1cc(NC(=O)CNC(C)(C)CC(C)(C)C)c2ccccc2n1.O=C(O)C(=O)O,-7.36
5,Cc1ccc(-c2nc(COC(=O)C3=NN(c4ccccc4)C(=O)CC3)cs2)cc1,2.28
6,O=[N+]([O-])c1cccc(-c2nnc3n2CCCCC3)c1,11.6
7,CC(=O)/C(=N/Nc1ccccc1)N1CCOCC1,-10.6
8,Nc1ccccc1SCC(O)Cn1ccc2ccccc21 (stereo not shown),15.5
9,CC(=O)N1N=C(c2ccc(Br)cc2)OC1(C)CC(=O)Nc1ccccc1 (stereo not shown),13.8
10,CCOc1ccc(-c2cc(C)[n+](CCN(CC)CC)c(-c3ccc(OCC)cc3)c2)cc1.[O-][Cl+3]([O-])([O-])[O-],-19.3
11,COC(=O)c1ccccc1NC(=O)C(=O)NCc1ccncc1,7.93
12,CCn1cc(C(=O)N2CCCC(CO)(Cc3ccccc3C)C2)cn1 (stereo not shown),13.1
13,O=C(NCCc1ccccc1)c1c(F)c(F)c(F)c(F)c1F,0.342
14,COc1ccc(C(=O)NC(=S)Nc2ccccc2N2CCN(S(C)(=O)=O)CC2)cc1OC,8.64
15,CCOc1ccccc1N1CCN(C(=O)CC(C)C)CC1,9.86
16,Cc1ccc(S(=O)(=O)c2cc3ccccc3oc2=Nc2ccc3c(c2)OCCO3)cc1,13.1
17,Cc1nc2ncnn2c(N2CCCC(C(=O)Nc3ccc4c(c3)CCC4)C2)c1C (stereo not shown),-25.2
18,CCC(=O)Nc1cc(C(=O)OC(C(=O)c2ccc(C)c(C)c2)c2ccccc2)ccc1C (stereo not shown),-3.07
19,O=C(Nc1csc([N+](=O)[O-])c1)Nc1ccccc1Cl,15.9
20,CC(C)N(C)C1CCN(S(=O)(=O)c2ccc(-c3ccc(=O)[nH]n3)s2)CC1,1.75
21,Cc1cccc(/C=N/n2c(-c3ccncc3)n[nH]c2=S)c1,11.9
22,COC(=O)c1cc(S(=O)(=O)N2CCN(c3ccc(C(C)=O)cc3)CC2)c[nH]1,11.7
